# “And” between values parts separate entries of the source, which are not always exact repeats. Equal values may be shown once. The list shows a part of the results. Further columns of the screen follow, without active or inactive calls.
# Tests used:
# Assay in all cases: Primary Screen for Target Class Profiling of Small Molecule Inhibitors of Methyltransferases
# [1] = target: Glycine N-methyltransferase (Homo sapiens) (UniProt Q14749); details: purified enzyme, MTase-Glo SAH luminescence; measured here: GNMT inhibition; at 40 µM; stronger effect = lower value
# In short: (§1)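 Each enzyme was reacted with SAM and its substrate, with compounds tested once at 40 uM; SAH formed was read by MTase-Glo luminescence.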
# [2] = target: Guanidinoacetate N-methyltransferase (Homo sapiens) (UniProt Q14353); details: purified enzyme, MTase-Glo SAH luminescence; measured here: GAMT inhibition; at 40 µM; stronger effect = lower value
# In short: as §1
# [3] = target: Histamine N-methyltransferase (Homo sapiens) (UniProt P50135); details: purified enzyme, MTase-Glo SAH luminescence; measured here: HNMT inhibition; at 40 µM; stronger effect = lower value
# In short: as §1
# [4] = target: Nicotinamide N-methyltransferase (Homo sapiens) (UniProt P40261); details: purified enzyme, MTase-Glo SAH luminescence; measured here: NNMT inhibition; at 40 µM; stronger effect = lower value
# In short: as §1
# [5] = target: Phenylethanolamine N-methyltransferase (Homo sapiens) (UniProt P11086); details: purified enzyme, MTase-Glo SAH luminescence; measured here: PNMT inhibition; at 40 µM; stronger effect = lower value
# In short: as §1
# % is scaled to controls: 0 for no effect and ±100 for the full control effect.
SMILES,"activity change, negative = inhibition [1]","activity change, negative = inhibition [2]","activity change, negative = inhibition [3]","activity change, negative = inhibition [4]","activity change, negative = inhibition [5]"
O=C1N(Cc2cccnc2)C[C@H]2CN(C3CCC3)CCN12,-2.12%,-3.87%,-0.826%,-3.59%,-14.7%
Cc1ccc(C2c3cccn3-c3ccccc3CN2C(=O)Nc2ccc(C)c(C)c2)cc1 (stereo not drawn),4.61%,1%,-5.98%,-8.69%,-4.18%
C[N@@+]1(CC2CC2)CC[C@]23c4c5ccc(O)c4O[C@H]2C(=O)CC[C@@]3(O)[C@H]1C5,1.59%,–,4.58%,–,–
CCOc1ccc(NC(=O)N2Cc3c(C)cc(C)nc3-n3cccc3C2c2ccc(F)cc2)cc1 (stereo not drawn),-3.13%,4.3%,-2.33%,-3.35%,-7.95%
C=CCN1CC[C@]23CCCCC2[C@H]1Cc1ccc(O)cc13 (stereo partly drawn),-3.68%,2.12%,-33.8%,-14.9%,0.979%
Cn1nc(C2CCCC2)cc1[C@H]1CN2CC[C@H]1C[C@@H]2CNC(=O)c1cccs1,-3.4%,-4.01%,-7.75%,-11.3%,-20.3%
COC(=O)CCNC(=O)N1Cc2ccccc2-n2cccc2C1c1ccccc1C (stereo not drawn),8.2%,0.896%,-2.8%,3.82%,8.45%
CCOC(=O)CNC(=O)N1Cc2ccccc2-n2cccc2C1c1cccc(C)c1 (stereo not drawn),-0.595%,2.1%,-2.97%,-6.55%,-1.34%
C/C=C(\C)C(O)C(C)/C=C(C)/C=C/C/C(C)=C/Cc1nc(OC)c(OC)c(O[C@@H]2O[C@@H](C)[C@H](O)[C@@H](O)[C@H]2O)c1C (stereo partly drawn),-1.69%,4.34%,-4.98%,-6.14%,2.46%
CCc1ccc(C2c3cccn3-c3ccccc3CN2C(=O)Nc2ccc(C)c(C)c2)cc1 (stereo not drawn),10.8%,2.18%,7.49%,10.1%,9.34%
COc1ccc(NC(=O)N2Cc3ccccc3-n3cccc3C2c2cccs2)cc1OC (stereo not drawn),9.03%,5.56%,1.83%,-5.1%,6.13%
CC(=O)N1CCC2(C1)N=C(c1cccnc1)C(=O)N2 (stereo not drawn),-5.76%,-0.774%,-0.455%,-6.49%,5.29%
CCOCCCNC(=O)N1Cc2ccccc2-n2cccc2C1c1cccc(Cl)c1 (stereo not drawn),9.06%,4.73%,3.19%,-0.288%,7.07%
O=C(NCC1CCOCC1)c1cnc(Nc2ccc(Cl)cc2Cl)nc1C(F)(F)F,-7.1%,-12.8%,0.237%,-36.5%,-2.59%
CN1CCc2cccc(Cl)c2CC1,7.66%,12.3%,-16.2%,-3.12%,-11.8%
C[C@]12CC[C@@H]3c4ccc(OC(=O)N(CCCl)CCCl)cc4CC[C@H]3[C@@H]1CC[C@@H]2OP(=O)(O)O,-20.4%,14.3%,6.65%,-10.3%,5.21%
CCOCCCNC(=O)N1Cc2ccccc2-n2cccc2C1c1ccc(C(C)C)cc1 (stereo not drawn),-4.74%,4.58%,-3.67%,-12.6%,-0.005%
CCOc1ccc(NC(=O)N2Cc3ccccc3-n3cccc3C2c2ccccc2Cl)cc1 (stereo not drawn),1.66%,1.94%,-4.42%,-1.41%,0.666%
CCC1=CC2CN3CCc4c([nH]c5ccccc45)[C@@](C(=O)OC)(C2)[C@@H]13,-0.556%,-15%,-7.99%,-29%,-4.42%
Cc1ccc(NC(=O)N2Cc3ccccc3-n3cccc3C2c2cccs2)cc1F (stereo not drawn),10.7%,5.58%,3.31%,-2.64%,4.31%

SMILES,"activity change, negative = inhibition [1]","activity change, negative = inhibition [2]","activity change, negative = inhibition [3]","activity change, negative = inhibition [4]","activity change, negative = inhibition [5]"
CCc1ccc(C2c3cccn3-c3ccccc3CN2C(=O)Nc2ccc(C)cc2)cc1 (stereo not drawn),8.41%,3.47%,1.88%,-1.33%,-0.325%
NC(CCCCCP(=O)(O)O)C(=O)O (stereo not drawn),9.5%,8.8%,11.8%,-1.6%,4.06%
CCC1c2cccn2-c2ccccc2CN1C(=O)Nc1ccc(F)cc1F (stereo not drawn),3.57%,2.86%,1.71%,-1.46%,-2.35%
CCC1c2cccn2-c2ccccc2CN1C(=O)Nc1cccc(Br)c1 (stereo not drawn),-1.63%,0%,5.53%,1.4%,6.76%
CCOc1ccc(C2c3cccn3-c3ccccc3CN2C(=O)Nc2ccc(CC)cc2)cc1 (stereo not drawn),-1.42%,3.32%,-3.08%,-6.58%,-0.503%
COc1ccc(C2c3cccn3-c3ccccc3CN2C(=O)Nc2ccc(F)cc2)cc1 (stereo not drawn),9.82%,2.37%,2.55%,-1.73%,4.64%
CN1Cc2c(ccc3c2OCO3)[C@@H]2[C@H]1c1cc3c(cc1C[C@@H]2O)OCO3,-2.89%,-1.36%,6.32%,-20.5%,-2.77%
O=C(NC1CCCC1)N1Cc2ccccc2-n2cccc2C1c1cccs1 (stereo not drawn),0.856%,1.23%,-5.42%,-7.83%,-0.985%
CCc1ccc(C2c3cccn3-c3ccccc3CN2C(=O)NCc2ccccc2)cc1 (stereo not drawn),8.24%,0%,0.267%,2.39%,4.21%
CN1CCCCC1Cn1cc(C(=O)c2cc([N+](=O)[O-])ccc2I)c2ccccc21 (stereo not drawn),-1.66%,-11%,-16%,-46.2%,-9.01%
Cc1ccc(C2c3cccn3-c3ccccc3CN2C(=O)Nc2cccc(C)c2C)cc1 (stereo not drawn),9.95%,0%,-1.46%,0.096%,3%
Cc1ccccc1NC(=O)N1Cc2ccccc2-n2cccc2C1c1ccccc1 (stereo not drawn),8.13%,0%,0.695%,-4.91%,1.32%
COc1ccc(OC)c(NC(=O)N2Cc3ccccc3-n3cccc3C2c2ccccc2)c1 (stereo not drawn),8.65%,0.497%,-3.42%,-9.07%,-4.16%
CC[C@H]1/C=C\C=C/C[C@@H](C)[C@H](O)[C@@](C)(O)C(=O)[C@@H](C)[C@H](O)[C@@H](C)C(=O)[C@@H](C)[C@H](O)[C@@H](C)/C=C\C(=O)O[C@@H]2[C@H](C)[C@H](CC1)O[C@]1(CC[C@H](C)[C@H](C[C@@H](C)O)O1)[C@H]2C,-1.29%,21.6%,6.72%,5.56%,8.47%
C[C@@H]1O[C@@H](O[C@H]2CC[C@@]3(C)C(CC[C@@H]4C3CC[C@]3(C)[C@@H](C5=CC(=O)OC5)CC[C@]43O)C2)[C@H](O)[C@H](O)[C@H]1O (stereo partly drawn),5.32%,-0.203%,8.91%,-9.38%,1.68%
CCc1ccc(C2c3cccn3-c3ccccc3CN2C(=O)Nc2cc(C)ccc2OC)cc1 (stereo not drawn),14.3%,0%,6.15%,2.45%,8.19%
COC1CC(OC2CCC3(C)C(CCC4C3CCC3(C)C(C5=CC(=O)OC5)C(OC(C)=O)CC43O)C2)OC(C)C1OC1OC(CO)C(O)C(O)C1O (stereo not drawn),0.889%,-2.79%,8.79%,-12.8%,2.5%
C[C@](O)(CS(=O)(=O)c1ccc(F)cc1)C(=O)Nc1ccc(C#N)c(C(F)(F)F)c1,–,1.1%,–,-15.5%,1.61%
CCOc1ccc(C2c3cccn3-c3ccccc3CN2C(=O)Nc2ccc(OC)cc2OC)cc1 (stereo not drawn),-1.25%,1.84%,2.46%,-1.59%,3.85%
COC(=O)N1CCN(C(=O)Cc2ccc(Cl)c(Cl)c2)C(CN2CCCC2)C1 (stereo not drawn),-3.27%,6.54% and 10.8%,5.62%,-10.8% and -8.93%,3.79% and -1.49%

SMILES,"activity change, negative = inhibition [1]","activity change, negative = inhibition [2]","activity change, negative = inhibition [3]","activity change, negative = inhibition [4]","activity change, negative = inhibition [5]"
O=C(NCc1ccc(F)cc1)N1Cc2ccccc2-n2cccc2C1c1ccccc1 (stereo not drawn),3.98%,3.94%,-0.071%,-0.814%,5.57%
CC(C)NC(C)Cc1ccc(I)cc1 (stereo not drawn),-12.8%,5.95%,-19.4%,-5.84%,2.23%
CC(C)=CCCC1(C)C=Cc2c(O)c3c(c(CC=C(C)C)c2O1)OC12C(=CC4CC1C(C)(C)OC2(C/C=C(/C)C(=O)O)C4=O)C3=O (stereo not drawn),–,1.68%,–,-35.4%,-2.35%
O=C(O)C(=O)c1cn(Cc2ccccc2)c2ccc(-c3ccc(OC(F)(F)F)cc3)cc12,-13.3%,0.295%,9.15%,-23.6%,-8.44%
CC[C@H]1C2CC3[C@@H]4N(C)c5ccccc5[C@]45C[C@@H]([C@H]2[C@H]5O)N3[C@@H]1O,-2.67%,-8.39%,0.996%,-17.3%,-7.56%
COCCCNC(=O)N1Cc2ccccc2-n2cccc2C1c1ccc(N(C)C)cc1 (stereo not drawn),5.64%,4.18%,-9.36%,-2.43%,2.18%
CC(=O)OC1CC(O)C2(C)C(CC(OC(C)=O)C3(C)C2CCC2(C)C(c4ccoc4)C(=O)C4OC423)C1(C)C (stereo not drawn),0.307%,5.07%,5.91%,-11.9%,3.93%
CCC1c2cccn2-c2ccccc2CN1C(=O)Nc1ccccc1 (stereo not drawn),0.764%,0%,-2.41%,-0.47%,6.26%
N#Cc1cccc(-c2ccc3n(c2=O)C[C@H]2C[C@@H]3CN(C(=O)c3ccc(F)cc3)C2)c1,-6.34%,-5.56%,-3.75%,-12%,-31.3%
Cc1cc(CN2CCC3(C2)C(=O)N(C)c2ccccc23)no1 (stereo not drawn),-10.6%,-4.36%,-3.64%,-17%,-11.4%
CCCN(CCC)C1Cc2cc(OC)c(OC)cc2C1,8.93%,14.8%,15%,-1.84%,1%
CCOc1ccc(C2c3cccn3-c3ccccc3CN2C(=O)NCc2ccco2)cc1 (stereo not drawn),-2.44%,5.89%,-0.378%,-2.89%,1.72%
COc1cc(N2CCN(C)CC2)ccc1N,-19.1%,-80.8%,-20.7%,-52.5%,-61.7%
C[N+]1(C)C2CCC1CC(OC(=O)C(CO)c1ccccc1)C2 (stereo not drawn),-3.26% and 2.96%,2.43% and 14%,2.1% and 10.4%,-8.09% and -3.38%,0.515% and 6.31%
COc1cccc(NCC(F)Cn2c3ccc(Br)cc3c3cc(Br)ccc32)c1 (stereo not drawn),2.88%,-27.6%,2.56%,-37.7%,-6.16%
CCOc1ccc(NC(=O)N2Cc3ccccc3-n3cccc3C2C(C)C)cc1 (stereo not drawn),0.487%,0.136%,7.5%,6.37%,7.74%
C=C[C@H]1[C@H](O[C@@H]2O[C@H](CO)[C@@H](O)[C@H](O)[C@H]2O)OC=C2C(=O)OCC[C@H]21,4.73%,9.72%,6.85%,-2.79%,7.47%
Cc1ccc(C)c(NC(=O)N2Cc3ccccc3-n3cccc3C2c2ccccc2)c1 (stereo not drawn),3.12%,3.55%,-3.88%,-2.77%,1.89%
O=C(NC1CCCCC1)OC[C@H]1C[C@@H]2CCN1C[C@@H]2c1cc(C2CCCC2)nc(-c2ccncc2)n1,-23%,-14.7%,-36.9%,-44.1%,-4.42%

# — PubChem BioAssay AID1745853 (National Center for Advancing Translational Sciences (NCATS), 2022)
